Data taken from PubChem BioAssay AID1963576 (National Center for Advancing Translational Sciences (NCATS), 2024).
Out of some 46,000 compounds screened, about 60 (0.1%) were called active. About 3% were inconclusive and are not listed. The call rests on the fitted dose curve; in most records, active means well fitted inhibition curve with a large enough effect; inconclusive means small, poorly fitted or top-dose-only effect; inactive means no such curve, though single readings can be large or run the other way. This is one part of the list.

assay: Primary qHTS assay for Inhibitors of ovarian cancer metastasis using an organotypic tumor microenvironment (TME) model.; further: nearly all actives have a fitted effect of over 65% in size;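 on activity change, negative = inhibition: plate controls were DMSO wells for no effect and tomatine positive control wells for full effect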; conditions: SKOV3ip1-GFP adhesion/invasion on 3D omental model, fluorescence; series mostly up to 45.8 µM; activity change, negative = inhibition: at the top concentration
In short: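 Adhesion/invasion was scored as fixed GFP-labeled SKOV3ip1 cell counts (488/509 nm), normalized to DMSO and tomatine controls. Cancer cells in serum-free medium, with four compound doses (0.36-46 umol/L), sat 2 hr at RT then 16 hr at 37 C on a 48 hr fibroblast/mesothelial/ECM culture.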

Activity change, negative = inhibition, inactive:
COc1ccc(CCC(=O)NCc2ccc3c(c2)CCN3C(=O)c2ccccc2)cc1 -40.8%
COc1ccc(C(CNC(=O)c2ccc(F)cc2)N2CCCC2)cc1 (centres undefined) -3.34%
Cn1c(=O)c2c(nc(SCC(=O)Nc3ccc(F)cc3)n2Cc2ccccc2F)n(C)c1=O -41.6%
CCCSc1ncc(Cl)c(C(=O)Nc2c(C(=O)c3ccc(C)cc3)oc3ccccc23)n1 3.47%
CCOc1ccc2nc(NC(=O)c3nc(SCc4ccccc4C)ncc3Cl)sc2c1 74.6%
Cc1cc(C)cc(NC(=O)N2CCC(CN3CCCCCC3)CC2)c1 -8.95%
COC(=O)c1c(NC(=O)/C(C#N)=C/c2ccc(OC)cc2)sc2c1CCC2 16.4%
O=C(CSc1nc2nccnc2c(=O)n1CCc1c[nH]c2ccccc12)Nc1ccccc1 -5.48%
CCc1ccc(C(=O)c2cn(CC(=O)Nc3cc(OC)ccc3OC)c3nc(C)ccc3c2=O)cc1 -8.64%
COc1ccc(S(=O)(=O)N2CCC(N3CCN(Cc4ccc(F)cc4)C(=O)C3=O)CC2)cc1 -0.0113%
Cc1ccc(C(=O)N2CCCCC2)cc1NC(=O)c1nsc2ccccc12 -6.06%
Cc1c(CCNC(=O)c2ccc(Br)o2)sc2nc(-c3ccc(Cl)cc3)nn12 -3.11%
Cc1oc2cc3oc(=O)c(CC(=O)NCc4ccccc4)c(C)c3cc2c1C -19.2%
Cc1ccc(C)c(NC(=O)c2ccc3c(c2)CCCN3S(C)(=O)=O)c1 -3.83%
COc1cccc(NC(=O)c2oc3ccccc3c2NC(=O)c2ccc(F)c(F)c2)c1 7.22%
CCCCNC(=O)c1nn(-c2ccc(C)cc2)c(=O)n(C)c1=O 3.89%
COc1ccc(CCNC(=O)c2cccc(-n3cnc4cccnc43)c2C)cc1OC 1.59%
Cc1ccccc1NC(=O)c1c(NC(=O)c2ccco2)sc2c1CCC(C(C)(C)C)C2 (centres undefined) 1.63%
CCC(=O)N1CCc2cc(Br)cc(S(=O)(=O)N3CCCC(C(=O)Nc4cccc(C)c4C)C3)c21 (centres undefined) 27.4%
COc1ccc(N2C(=O)CS(=O)(=O)C23C(=O)N(Cc2ccc(F)cc2)c2ccc(C)cc23)cc1 (centres undefined) 30.7%
COc1ccccc1CNC(=O)CSc1nc2nc(C)c(Cc3ccccc3Cl)c(C)n2n1 0.792%
Cc1ccc(Cl)cc1NC(=O)C1CCCN(S(=O)(=O)c2cccc3cccnc23)C1 (centres undefined) 1.96%
CC(Oc1ccccc1)C(=O)Nc1ccc(OCc2cc(=O)n3ccsc3n2)cc1 (centres undefined) 4%
CCOC(=O)c1c(S(=O)(=O)N2CCCC(C(=O)Nc3cccc(C#N)c3)C2)c(C)n(C)c1C (centres undefined) 2.35%
Cc1ccc(S(=O)(=O)c2cn(CC(=O)Nc3ccccc3C)c3cc4c(cc3c2=O)OCO4)cc1 17.3%
Cn1c(=O)c2c(SCC(=O)NCc3ccco3)nc(-c3cccc(F)c3)nc2n(C)c1=O 3.24%
CCOC(=O)c1c(S(=O)(=O)NCC(=O)Nc2ccc(C)c(N(C)C)c2)c(C)n(C)c1C 2.74%
NS(=O)(=O)c1ccc(CCNC(=O)c2ccc3nc(CCc4ccccc4)oc3c2)cc1 -9.93%
Cc1cc2c(cc1S(=O)(=O)N(C)CC(=O)Nc1ccc(C#N)cc1)OCC(=O)N2 2.83%
Cc1nc(NC(=O)N2CCC[C@@H]2C(N)=O)sc1-c1csc(C(C)(C)C)n1 3.45%
COc1ccc(-c2nc3cc(C)ccn3c2NC(=O)c2ccc(F)cc2)cc1 2.46%
CCOc1ccc(CNC(=O)c2cnc3sc(N4CCOCC4)nn3c2=O)cc1OC 2.99%
CCOC(=O)N1CCN(Cc2nc3cc([N+](=O)[O-])ccc3n2C(C)C)CC1 -11.4%
Cc1cccc(N2CCN(C(=O)CN3C(=O)COc4ccc(S(=O)(=O)N5CCC(C)CC5)cc43)CC2C)c1 (centres undefined) 17%
Cc1ccc2scc(N3CCC(C)CC3)c(=O)c2c1 -22%
CCOC(=O)C1CCC(CN(Cc2ccc(Cl)cc2)S(=O)(=O)c2cc(Cl)cc(Cl)c2)CC1 (centres undefined) -15.3%
COc1cccc(NS(=O)(=O)c2ccc3c(c2)[C@H]2C=CC[C@H]2[C@@H](c2ccccc2Cl)N3)c1 -34.5%
COc1cccc(CNC(=O)Cc2ccc(NC(=O)N3CCSc4ncccc43)cc2)c1OC -9.5%
CCOc1ccccc1NC(=O)CCn1cnnn1 9.71%
CCN(CC)CCNC(=O)CSc1nc2nc(C)c(Cc3ccccc3)c(C)n2n1 10.5%
Cc1ccc(NC(=O)C2CCN(S(=O)(=O)c3ccc4[nH]c(=O)ccc4c3)CC2)cc1C -7.76%
Cc1ccccc1CNc1nc(N(C)C)nc2c1cnn2C 4.34%
O=C1COc2cc(S(=O)(=O)CCC(=O)N3CCN(c4ccccc4F)CC3)c(Cl)cc2N1 4.8%
CCc1ccccc1NCc1nnc2n1CCCCC2 -3.23%
Cn1c(=NC(=O)c2ccc(S(=O)(=O)N3CCCC3)cc2)sc2cc(F)ccc21 3.9%
CCCc1cc(N2CCN(c3ccccc3)CC2)n2cnnc2n1 -1.66%
CCc1ccc(CN(Cc2ccco2)c2cnc(S(C)(=O)=O)nc2C(=O)Nc2c(C)cccc2C)cc1 2.16%
CCOc1ccc(CCNC(=O)Cn2c(-c3cccs3)cc3cc(F)ccc32)cc1OCC 7.69%
Cc1nc2nc(NC(=O)c3ccc(C(C)(C)C)cc3)[nH]n2c(=O)c1Cl -2.39%
Cc1oc(-c2ccccc2F)nc1CSCC(=O)N1CCN(c2ccccc2)CC1 -2.22%
COc1cccc(CN2CCCN(CC(=O)Nc3ccc4c(c3)OCCO4)S2(=O)=O)c1 2.98%
CCOc1ccccc1NC(=O)C1CCN(S(=O)(=O)c2cc(Br)cc3c2N(C(C)=O)CC3)CC1 -7.58%
COc1ccc(N2CCN(C(=O)CSc3c4c(nc5ccc(Cl)cc35)CCCC4)CC2)cc1 -30.5%
O=C(Nc1cccc(O)c1)c1cc2nc(-c3ccc(Br)cc3)cc(C(F)(F)F)n2n1 1.88%
CCOc1ccc(CNC(=O)c2ccc3c(c2)N(CC)CCS3)cc1 -6.69%
COc1ccc(S(=O)(=O)c2c(Nc3c(C)cccc3C)sc(C(=O)c3ccc4c(c3)OCO4)c2N)cc1 0.204%
COc1ccc(CN(C)c2ccc(-c3nc(-c4ccccc4)no3)cc2[N+](=O)[O-])cc1 -9.35%
O=C(Nc1ccc2oc(-c3cccnc3)nc2c1)c1ccc(-c2cccc(Cl)c2)o1 -16.4%
COc1cccc(CCNC(=O)c2cnc3sc(N4CCCCCC4)nn3c2=O)c1 5.79%
Cc1cccc(Nc2ncc(NC(=O)c3cccc(F)c3)c(Nc3cccc(C)c3)n2)c1 -4.35%
CS(=O)(=O)c1ncc(Cl)c(C(=O)Nc2c(C(=O)Nc3ccccc3)oc3ccccc23)n1 -5.96%
COc1ccc2c(CC(=O)Nc3ccc(C)cc3)coc2c1 5.02%
CCN(C(=O)CSc1nnc(-c2cc(OC)c(OC)c(OC)c2)o1)c1ccccc1 7.01%
Clc1ccc(CCNc2nc3ccccc3c3nc(-c4ccccc4)nn23)cc1 -4.57%
O=C(CSc1nnc(-c2ccncc2)n1-c1ccccc1)Nc1ccc(Cl)c(Cl)c1 -2.47%
COc1ccc(NC(=O)CSC2=Nc3ccccc3C3=NC(CC(=O)NCc4ccco4)C(=O)N23)cc1 (centres undefined) 7.65%
CCOc1cccc(CC(=O)NCc2ccc3c(c2)CCN3C(=O)c2ccc(F)cc2)c1OCC 4.85%
CCOc1ccc(NC(=O)Cn2cc(C(=O)c3cccs3)c3ccccc32)cc1 -11.7%
CCOc1cc(CNC(=O)c2ccccc2NC(=O)c2nsc3ccccc23)ccc1OC 0.532%
CCOc1ccc(CCNC(=O)CN2CCN(Cc3ccc(F)cc3Cl)C2=O)cc1OCC 6.46%
CN(C(=O)CCNC(=O)Cn1cnc2ccccc2c1=O)c1ccccc1F 0.94%
COc1cc(CCc2cc(NC(=O)c3ccc(N4C[C@@H](C)N[C@@H](C)C4)cc3)n[nH]2)cc(OC)c1 -14.2%

outcome, inactive:
CCC(=O)N1c2ccc(S(=O)(=O)CCC(=O)N3CCN(c4cc(C)ccc4C)CC3)cc2CC1C (centres undefined)
O=C(NC1CC(=O)N(c2ccccc2)C1)C(c1ccccc1)c1ccccc1 (centres undefined)
O=C(Nc1ccccc1C(F)(F)F)C1CCN(S(=O)(=O)Cc2ccccc2)CC1
Cc1ccc(-n2c(=O)c3sc4ccccc4c3n(C)c2=O)cc1F
CC(CNC(=O)CN1C(=O)COc2ccc(S(=O)(=O)N3CCCCCC3)cc21)c1ccccc1 (centres undefined)
Cc1ccccc1CNC(=O)c1cccc(NC(=O)N2CCSc3ncccc32)c1
CCOc1ccc(CC(=O)Nc2c(C(=O)Nc3ccc(OC)cc3OC)oc3ccccc23)cc1
CCOc1ccc(CCNC(=O)c2nc(-c3cccc(F)c3)n3c2CCCCC3)cc1OCC
CC(C)c1nc2ccc(C(=O)NCCCN3CCN(c4cccc(Cl)c4)CC3)cc2o1
Cc1cccc(N2CCN(C(=O)C3CCCN(S(=O)(=O)c4ccc(Br)s4)C3)CC2)c1C (centres undefined)
Cc1cccn2c(Nc3ccccc3)c(-c3cccs3)nc12
CCc1cccc(CC)c1NC(=O)Cn1c(=O)c(-c2cc(C)ccc2NC(C)=O)nc2ccccc21
COc1cccc(N(Cc2nnc3n2CCCCC3)C(=O)Nc2ccccc2)c1
Cc1cccc(N2CCN(S(=O)(=O)c3ccc4c(c3)C(C(C)C)C(=O)N4)CC2)c1C (centres undefined)
Cc1ccc(-c2nnc(SCC(=O)c3ccc(Cl)cc3)n2-c2ccccc2)cc1
CCCCOc1ccc(C(=O)NCCc2sc(-c3ccc(OC)c(OC)c3)nc2C)cc1
COc1cc(NC(=O)CC2C(=O)N(c3cccc(C)c3)C(=O)N2Cc2ccco2)cc(OC)c1 (centres undefined)
Cc1ccc(-n2nc3c(=O)n(CC(=O)NC(C)C)nc(C)c3c2C)cc1
CCC(CC)C(=O)Nc1ccc2nc(SCc3ccccc3)sc2c1
Cc1ccc(C(=O)N(Cc2ccco2)Cc2ccco2)cc1
C=CCc1c(C)nc2nc(SCC(=O)Nc3ccccc3CC)nn2c1C
CCCn1c(=O)n(-c2ccccc2)c(=O)c2sc3ccccc3c21
